In assay [1] the target is T1, FBXW2, endogenous (human (endogenous in H1299)) (UniProt Q9UKT8).
T1 sequence: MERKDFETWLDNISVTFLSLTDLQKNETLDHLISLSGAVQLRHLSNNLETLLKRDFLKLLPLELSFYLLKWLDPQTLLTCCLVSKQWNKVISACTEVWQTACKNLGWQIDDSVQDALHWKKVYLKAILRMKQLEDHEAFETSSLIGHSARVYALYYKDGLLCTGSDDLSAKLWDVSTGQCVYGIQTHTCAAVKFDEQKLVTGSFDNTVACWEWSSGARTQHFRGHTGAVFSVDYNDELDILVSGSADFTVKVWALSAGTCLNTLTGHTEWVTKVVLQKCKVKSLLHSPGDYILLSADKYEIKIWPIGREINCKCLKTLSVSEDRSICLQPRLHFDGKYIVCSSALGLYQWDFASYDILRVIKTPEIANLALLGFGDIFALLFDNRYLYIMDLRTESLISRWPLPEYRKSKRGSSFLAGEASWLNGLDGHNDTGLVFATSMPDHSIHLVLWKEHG
Nature of the assay: co-IP; endogenous proteins; H1299 whole cell extracts pre-cleared with normal IgG-AC, overnight at 4 °C with antibody against FBXW2, β-TrCP, FBXL3, FBXL11 or SKP2; IB.

Amino acid sequences for entries named in this document (tags omitted). A change or cut given only in a name is not applied to a line headed by its entry. Chains listed by the source or under a name are the forms on record and can include a tag or linker.
UniProt Q13309: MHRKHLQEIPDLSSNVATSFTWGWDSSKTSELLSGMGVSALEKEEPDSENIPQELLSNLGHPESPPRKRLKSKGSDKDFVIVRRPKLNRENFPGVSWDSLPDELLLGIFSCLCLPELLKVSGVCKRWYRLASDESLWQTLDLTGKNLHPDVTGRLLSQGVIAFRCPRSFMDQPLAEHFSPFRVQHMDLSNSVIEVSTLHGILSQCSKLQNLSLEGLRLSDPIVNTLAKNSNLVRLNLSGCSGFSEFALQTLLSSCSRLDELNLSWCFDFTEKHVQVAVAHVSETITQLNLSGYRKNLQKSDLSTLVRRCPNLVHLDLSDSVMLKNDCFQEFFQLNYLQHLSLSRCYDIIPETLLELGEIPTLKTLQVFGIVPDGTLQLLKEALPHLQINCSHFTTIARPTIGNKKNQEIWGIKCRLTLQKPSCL
SKP2-3A (Q13309, form named): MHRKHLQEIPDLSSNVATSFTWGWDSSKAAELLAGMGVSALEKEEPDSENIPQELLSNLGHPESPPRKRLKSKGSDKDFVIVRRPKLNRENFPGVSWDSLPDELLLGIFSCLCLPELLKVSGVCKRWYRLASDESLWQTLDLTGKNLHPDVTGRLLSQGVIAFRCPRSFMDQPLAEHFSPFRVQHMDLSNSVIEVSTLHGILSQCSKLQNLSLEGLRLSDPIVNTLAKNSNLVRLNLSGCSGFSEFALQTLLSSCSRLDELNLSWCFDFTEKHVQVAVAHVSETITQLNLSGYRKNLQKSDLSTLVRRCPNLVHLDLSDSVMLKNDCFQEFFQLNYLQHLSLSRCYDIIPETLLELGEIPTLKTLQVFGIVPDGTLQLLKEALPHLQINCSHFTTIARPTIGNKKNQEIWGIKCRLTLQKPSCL
UniProt Q9Y297: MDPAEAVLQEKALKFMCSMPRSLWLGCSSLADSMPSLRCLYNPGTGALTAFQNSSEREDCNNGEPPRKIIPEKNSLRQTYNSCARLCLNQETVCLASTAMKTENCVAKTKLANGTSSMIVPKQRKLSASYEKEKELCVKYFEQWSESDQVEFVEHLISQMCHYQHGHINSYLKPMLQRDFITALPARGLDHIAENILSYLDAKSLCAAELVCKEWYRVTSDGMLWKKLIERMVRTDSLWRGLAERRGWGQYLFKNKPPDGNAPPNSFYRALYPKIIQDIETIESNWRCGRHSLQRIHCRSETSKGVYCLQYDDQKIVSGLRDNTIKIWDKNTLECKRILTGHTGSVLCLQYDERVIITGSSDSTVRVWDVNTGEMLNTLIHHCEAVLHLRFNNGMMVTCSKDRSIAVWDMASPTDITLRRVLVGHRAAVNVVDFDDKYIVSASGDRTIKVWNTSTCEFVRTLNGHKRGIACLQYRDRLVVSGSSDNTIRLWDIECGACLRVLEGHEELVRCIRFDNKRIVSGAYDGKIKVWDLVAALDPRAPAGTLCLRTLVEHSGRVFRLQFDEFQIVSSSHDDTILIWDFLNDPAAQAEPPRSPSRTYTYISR

Assay [2] concerns the target T2, FBXW2, ectopically expressed (tag not told) (UniProt Q9UKT8).
T2 sequence: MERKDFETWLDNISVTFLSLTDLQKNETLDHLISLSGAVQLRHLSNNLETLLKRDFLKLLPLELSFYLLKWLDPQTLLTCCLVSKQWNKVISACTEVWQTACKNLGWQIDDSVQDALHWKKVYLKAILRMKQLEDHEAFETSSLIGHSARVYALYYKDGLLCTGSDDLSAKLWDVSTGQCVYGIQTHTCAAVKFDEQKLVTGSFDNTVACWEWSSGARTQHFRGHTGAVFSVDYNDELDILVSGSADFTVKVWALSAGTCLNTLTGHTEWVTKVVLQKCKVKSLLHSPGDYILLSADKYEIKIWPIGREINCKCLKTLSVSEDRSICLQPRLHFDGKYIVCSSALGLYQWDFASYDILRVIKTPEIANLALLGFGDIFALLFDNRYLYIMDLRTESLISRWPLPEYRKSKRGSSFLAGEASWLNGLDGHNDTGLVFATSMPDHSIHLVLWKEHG
Description: co-IP; F-box proteins transfected into 293 cells; immunoprecipitation of the transfected protein, IB for endogenous β-TrCP1 (Supplementary Fig. 1a).

Assay [3] has as its target T3, FLAG-FBXW2 (FLAG-tagged FBXW2), wild type (human) (UniProt Q9UKT8).
T3 sequence: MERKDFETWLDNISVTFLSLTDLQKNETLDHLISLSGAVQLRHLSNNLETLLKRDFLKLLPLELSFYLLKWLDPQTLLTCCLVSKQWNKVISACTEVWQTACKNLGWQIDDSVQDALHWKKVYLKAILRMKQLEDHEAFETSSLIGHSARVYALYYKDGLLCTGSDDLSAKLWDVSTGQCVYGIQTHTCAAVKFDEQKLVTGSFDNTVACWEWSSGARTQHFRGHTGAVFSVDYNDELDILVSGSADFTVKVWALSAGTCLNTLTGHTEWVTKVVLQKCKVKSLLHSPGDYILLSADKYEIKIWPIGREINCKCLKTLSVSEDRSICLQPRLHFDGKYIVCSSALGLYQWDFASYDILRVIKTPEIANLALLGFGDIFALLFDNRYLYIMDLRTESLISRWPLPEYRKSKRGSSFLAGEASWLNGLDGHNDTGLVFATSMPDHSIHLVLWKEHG
Nature of the assay: co-IP; co-transfected tagged proteins; pre-cleared lysates with bead-conjugated FLAG antibody overnight at 4 °C; IB (Fig. 2b; Fig. 4b in H1299, HA IB).

The target of assay [4] is T2, FBXW2, ectopically expressed (tag not told). Description: co-IP; β-TrCP1-FBXW2 binding in cells, control and with GRK2 siRNA silencing (Supplementary Fig. 2e,f); details not shown.
For assay [5] the target is unchanged. Nature of the assay: co-IP; both proteins ectopically overexpressed (Supplementary Fig. 1d); details not shown.
Assay [6] has as its target SKP2, endogenous (human (endogenous in H1299)) (UniProt Q13309). Nature of the assay: co-IP; endogenous proteins; H1299 whole cell extracts pre-cleared with normal IgG-AC, overnight at 4 °C with antibody against FBXW2, β-TrCP, FBXL3, FBXL11 or SKP2; IB.
Another assay has as its target SKP2-3A (UniProt Q13309). Description: co-IP; co-transfected tagged proteins; pre-cleared lysates with bead-conjugated FLAG antibody overnight at 4 °C; IB (Fig. 2b; Fig. 4b in H1299, HA IB).
The target in assay [7] is SKP2, wild type, tagged (Fig. 4b) (UniProt Q13309). The description is as above.
Assay [8] concerns the target β-TrCP1 (β-transducin repeat-containing protein 1), endogenous (human (endogenous in 293, H1299, A549)) (UniProt Q9Y297). Nature of the assay: co-IP; endogenous proteins; H1299 whole cell extracts pre-cleared with normal IgG-AC, overnight at 4 °C with antibody against FBXW2, β-TrCP, FBXL3, FBXL11 or SKP2; IB.
For assay [9], the target named is T1, FBXW2, endogenous (human (endogenous in H1299)). The description is as above. This is another data set of the same source.

Where two headings read alike, the source gives them in different places. These are yes or no findings as the source states them, for the method shown. In cells and extracts the contact can be indirect. Some entries that bind do so weakly or less than the wild type. For some assays here: Sequences can lack the tags named with a protein.

Results on seven molecules are retold here after PMC5241824.

As to “β-TrCP1 (β-transducin repeat-containing protein 1), endogenous (from UniProt Q9Y297 1-605)”, the binding entry in assay [1] and in assay [2] was “binds” in each case.

Turning to HA-β-TrCP1 (from UniProt Q9Y297 1-605), in assay [3], the binding entry is reported as “binds”.

For “β-TrCP1, ectopically expressed (tag not told) (from UniProt Q9Y297 1-605)”, the binding result in [4] and in assay [5] was “binds” throughout.

B1: FBXW2, endogenous (protein, UniProt Q9UKT8 1-454)
chain: MERKDFETWLDNISVTFLSLTDLQKNETLDHLISLSGAVQLRHLSNNLETLLKRDFLKLLPLELSFYLLKWLDPQTLLTCCLVSKQWNKVISACTEVWQTACKNLGWQIDDSVQDALHWKKVYLKAILRMKQLEDHEAFETSSLIGHSARVYALYYKDGLLCTGSDDLSAKLWDVSTGQCVYGIQTHTCAAVKFDEQKLVTGSFDNTVACWEWSSGARTQHFRGHTGAVFSVDYNDELDILVSGSADFTVKVWALSAGTCLNTLTGHTEWVTKVVLQKCKVKSLLHSPGDYILLSADKYEIKIWPIGREINCKCLKTLSVSEDRSICLQPRLHFDGKYIVCSSALGLYQWDFASYDILRVIKTPEIANLALLGFGDIFALLFDNRYLYIMDLRTESLISRWPLPEYRKSKRGSSFLAGEASWLNGLDGHNDTGLVFATSMPDHSIHLVLWKEHG
Consider B1, for which the binding entry in assay [6] is on record as “binds”.

B2: FBXW2, tagged, co-transfected with SKP2 or SKP2-3A (Fig. 4b) (protein, UniProt Q9UKT8 1-454)
chain: MERKDFETWLDNISVTFLSLTDLQKNETLDHLISLSGAVQLRHLSNNLETLLKRDFLKLLPLELSFYLLKWLDPQTLLTCCLVSKQWNKVISACTEVWQTACKNLGWQIDDSVQDALHWKKVYLKAILRMKQLEDHEAFETSSLIGHSARVYALYYKDGLLCTGSDDLSAKLWDVSTGQCVYGIQTHTCAAVKFDEQKLVTGSFDNTVACWEWSSGARTQHFRGHTGAVFSVDYNDELDILVSGSADFTVKVWALSAGTCLNTLTGHTEWVTKVVLQKCKVKSLLHSPGDYILLSADKYEIKIWPIGREINCKCLKTLSVSEDRSICLQPRLHFDGKYIVCSSALGLYQWDFASYDILRVIKTPEIANLALLGFGDIFALLFDNRYLYIMDLRTESLISRWPLPEYRKSKRGSSFLAGEASWLNGLDGHNDTGLVFATSMPDHSIHLVLWKEHG
For the molecule B2, the binding result in the assay with SKP2-3A is “no binding”; in assay [7], “binds”.

B3: FBXL11, endogenous (protein, UniProt Q9Y2K7 1-1162)
chain: MEPEEERIRYSQRLRGTMRRRYEDDGISDDEIEGKRTFDLEEKLHTNKYNANFVTFMEGKDFNVEYIQRGGLRDPLIFKNSDGLGIKMPDPDFTVNDVKMCVGSRRMVDVMDVNTQKGIEMTMAQWTRYYETPEEEREKLYNVISLEFSHTRLENMVQRPSTVDFIDWVDNMWPRHLKESQTESTNAILEMQYPKVQKYCLMSVRGCYTDFHVDFGGTSVWYHIHQGGKVFWLIPPTAHNLELYENWLLSGKQGDIFLGDRVSDCQRIELKQGYTFVIPSGWIHAVYTPTDTLVFGGNFLHSFNIPMQLKIYNIEDRTRVPNKFRYPFYYEMCWYVLERYVYCITNRSHLTKEFQKESLSMDLELNGLESGNGDEEAVDREPRRLSSRRSVLTSPVANGVNLDYDGLGKTCRSLPSLKKTLAGDSSSDCSRGSHNGQVWDPQCAPRKDRQVHLTHFELEGLRCLVDKLESLPLHKKCVPTGIEDEDALIADVKILLEELANSDPKLALTGVPIVQWPKRDKLKFPTRPKVRVPTIPITKPHTMKPAPRLTPVRPAAASPIVSGARRRRVRCRKCKACVQGECGVCHYCRDMKKFGGPGRMKQSCVLRQCLAPRLPHSVTCSLCGEVDQNEETQDFEKKLMECCICNEIVHPGCLQMDGEGLLNEELPNCWECPKCYQEDSSEKAQKRKMEESDEEAVQAKVLRPLRSCDEPLTPPPHSPTSMLQLIHDPVSPRGMVTRSSPGAGPSDHHSASRDERFKRRQLLRLQATERTMVREKENNPSGKKELSEVEKAKIRGSYLTVTLQRPTKELHGTSIVPKLQAITASSANLRHSPRVLVQHCPARTPQRGDEEGLGGEEEEEEEEEEEDDSAEEGGAARLNGRGSWAQDGDESWMQREVWMSVFRYLSRRELCECMRVCKTWYKWCCDKRLWTKIDLSRCKAIVPQALSGIIKRQPVSLDLSWTNISKKQLTWLVNRLPGLKDLLLAGCSWSAVSALSTSSCPLLRTLDLRWAVGIKDPQIRDLLTPPADKPGQDNRSKLRNMTDFRLAGLDITDATLRLIIRHMPLLSRLDLSHCSHLTDQSSNLLTAVGSSTRYSLTELNMAGCNKLTDQTLIYLRRIANVTLIDLRGCKQITRKACEHFISDLSINSLYCLSDEKLIQKIS
Take B3: the binding entry in assay [8], in assay [6] and in assay [9] was “no binding” in each case.

B4: FBXL3, endogenous (protein, UniProt Q9UKT7 1-428)
chain: MKRGGRDSDRNSSEEGTAEKSKKLRTTNEHSQTCDWGNLLQDIILQVFKYLPLLDRAHASQVCRNWNQVFHMPDLWRCFEFELNQPATSYLKATHPELIKQIIKRHSNHLQYVSFKVDSSKESAEAACDILSQLVNCSLKTLGLISTARPSFMDLPKSHFISALTVVFVNSKSLSSLKIDDTPVDDPSLKVLVANNSDTLKLLKMSSCPHVSPAGILCVADQCHGLRELALNYHLLSDELLLALSSEKHVRLEHLRIDVVSENPGQTHFHTIQKSSWDAFIRHSPKVNLVMYFFLYEEEFDPFFRYEIPATHLYFGRSVSKDVLGRVGMTCPRLVELVVCANGLRPLDEELIRIAERCKNLSAIGLGECEVSCSAFVEFVKMCGGRLSQLSIMEEVLIPDQKYSLEQIHWEVSKHLGRVWFPDMMPTW
Take B4: the binding entry in assay [8], in assay [6] and in [9] was “no binding” each time.
